Measured values as given in the supplement of paper PMC7826260.
The other results are listed elsewhere or left out. Viral Rep nickase domains cut single-stranded DNA in vitro at 3 µM enzyme and 37 °C for 1 h; the strands have 90 letters, of which the middle is given. The score is log2 (uncut reads / reads without enzyme); uncut sequences lie near 0, cut ones below; no hit call is given. Because reads are shares of a total, they shift together; where an enzyme cuts many sequences, the uncut ones exceed 0.

Key:
Assay in all cases: uncleaved DNA left, log2 of reads against the no-enzyme library (log2 ratio); higher = less cleavage (more negative = more Rep cleavage of the k-mer); sequences stand for … in CTCGTCCG…ACCGGAGA
[1] = system: T1, Rep nickase domain of Muscovy duck circovirus
T1 sequence (residues 1-111 of Rep, tag left off): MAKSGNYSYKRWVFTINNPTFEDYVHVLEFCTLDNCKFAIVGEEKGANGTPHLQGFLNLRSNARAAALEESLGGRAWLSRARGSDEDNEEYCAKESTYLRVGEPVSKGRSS
Procedure: (§1)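 A pool of 90-nt single-stranded DNAs with seven random bases just before the constant AC of the nick site (name = the seven bases) was cut by 3 µM recombinant His6-SUMO-tagged Rep nickase domain (300 nM DNA, 50 mM HEPES pH 8.0, 50 mM NaCl, 1 mM MnCl2, 1 h, 37 °C, three replicates). Uncut DNA was amplified and sequenced.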

[2] = system: T2, Rep nickase domain of banana bunchy top virus
T2 sequence (residues 1-94 of Rep, tag left off): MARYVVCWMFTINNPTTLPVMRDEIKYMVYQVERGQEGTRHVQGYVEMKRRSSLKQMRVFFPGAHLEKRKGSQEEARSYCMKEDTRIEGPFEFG
Procedure: as §1

[3] = system: T3, Rep nickase domain of cabbage leaf curl virus
T3 sequence (residues 1-116 of Rep, tag left off): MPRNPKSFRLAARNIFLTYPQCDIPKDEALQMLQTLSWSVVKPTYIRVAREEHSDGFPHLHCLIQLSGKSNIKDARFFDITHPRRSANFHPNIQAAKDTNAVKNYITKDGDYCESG
Procedure: as §1

[4] = system: T4, Rep nickase domain of chickpea chlorotic dwarf virus
T4 sequence (residues 1-124 of Rep, tag left off): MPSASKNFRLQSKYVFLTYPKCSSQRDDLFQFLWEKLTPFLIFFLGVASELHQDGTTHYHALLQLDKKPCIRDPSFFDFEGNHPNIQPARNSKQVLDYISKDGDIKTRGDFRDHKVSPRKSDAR
Procedure: as §1

[5] = system: T5, Rep nickase domain of faba bean necrotic yellows virus
T5 sequence (residues 1-98 of Rep, tag left off): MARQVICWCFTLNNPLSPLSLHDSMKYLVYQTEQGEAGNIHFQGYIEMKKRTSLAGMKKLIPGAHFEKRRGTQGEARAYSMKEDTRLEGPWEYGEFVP
Procedure: as §1

[6] = system: T6, Rep nickase domain of maize striate mosaic virus
T6 sequence (residues 1-117 of Rep, tag left off): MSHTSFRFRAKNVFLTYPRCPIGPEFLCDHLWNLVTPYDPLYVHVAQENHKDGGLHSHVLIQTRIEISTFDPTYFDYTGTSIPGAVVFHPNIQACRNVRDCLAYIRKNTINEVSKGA
Procedure: as §1

[7] = system: T7, Rep nickase domain of porcine circovirus 2
T7 sequence (residues 2-116 of Rep, tag left off): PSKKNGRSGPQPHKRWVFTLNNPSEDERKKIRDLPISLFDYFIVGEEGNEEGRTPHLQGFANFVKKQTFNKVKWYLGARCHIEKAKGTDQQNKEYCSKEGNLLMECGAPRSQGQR
Procedure: as §1

[8] = system: T8, Rep nickase domain of tomato yellow leaf curl virus
T8 sequence (residues 1-136 of Rep, tag left off): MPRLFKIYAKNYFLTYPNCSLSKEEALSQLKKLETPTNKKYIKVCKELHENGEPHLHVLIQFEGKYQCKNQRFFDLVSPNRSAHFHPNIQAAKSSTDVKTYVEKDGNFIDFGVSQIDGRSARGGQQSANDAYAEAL
Procedure: as §1

[9] = system: T9, Rep nickase domain of wheat dwarf virus
T9 sequence (residues 1-137 of Rep, tag left off): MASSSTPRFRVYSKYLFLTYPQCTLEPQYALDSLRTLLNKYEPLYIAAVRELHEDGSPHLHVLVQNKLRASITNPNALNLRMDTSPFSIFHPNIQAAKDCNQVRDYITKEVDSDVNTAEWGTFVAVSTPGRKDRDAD
Procedure: as §1

| Sequence | uncleaved DNA left (log2) [1] | uncleaved DNA left (log2) [2] | uncleaved DNA left (log2) [3] | uncleaved DNA left (log2) [4] | uncleaved DNA left (log2) [5] | uncleaved DNA left (log2) [6] | uncleaved DNA left (log2) [7] | uncleaved DNA left (log2) [8] | uncleaved DNA left (log2) [9] |
| --- | --- | --- | --- | --- | --- | --- | --- | --- | --- |
| AGTTTCA | -0.0851 | 0.0233 | 0.105 | -0.668 | -0.0849 | 0.286 | -0.683 | 0.0923 | 0.0192 |
| GCGCGAG | 0.0514 | 0.113 | 0.154 | 0.553 | -0.0368 | -0.201 | 0.12 | -0.0593 | 0.0209 |
| AATAGTT | -0.187 | -0.937 | -0.869 | -2.53 | -0.00746 | -0.6 | -3.46 | -0.0487 | -0.188 |
| TTGGTAA | 0.108 | 0.194 | 0.418 | 0.632 | 0.179 | 0.925 | 0.0848 | 0.0786 | 0.117 |
| CCCGATC | -0.0261 | -0.105 | 0.228 | 0.256 | 0.0588 | -0.202 | -0.0711 | 0.0654 | -0.105 |
| ATCCACA | -0.0773 | 0.0567 | -0.168 | -1.36 | 0.0923 | -0.688 | -0.112 | -0.0248 | 0.11 |
| ACTCAGC | -0.106 | 0.0236 | -0.535 | -0.448 | 0.0541 | -1.08 | 0.183 | 0.113 | -0.00606 |
| ACAAGCC | 0.0203 | -0.0683 | -0.379 | -0.454 | -0.015 | -0.919 | 0.147 | -0.00292 | -0.0328 |
| ATCCGAG | -0.0437 | 0.0827 | 0.829 | 1.69 | 0.0238 | 1.46 | 0.139 | 0.037 | 0.192 |
| AGACTTG | 0.0136 | 0.0374 | -0.0722 | 0.406 | -0.128 | 0.967 | 0.0315 | -0.0957 | -0.0322 |
| GGTGCTC | -0.0166 | -0.0876 | 0.52 | 1.22 | -0.0481 | 1.85 | 0.0611 | 0.11 | 0.022 |
| AAAGAAC | -0.00871 | 0.0548 | -0.255 | -0.212 | 0.0222 | -0.472 | 0.163 | -0.11 | 0.0492 |
| CCAGAGC | 0.0354 | 0.0913 | -0.467 | -0.503 | 0.089 | -0.896 | 0.0981 | 0.0761 | -0.036 |
| ATAATCA | 0.00791 | 0.0844 | 0.313 | -0.904 | 0.0731 | -0.397 | 0.0296 | 0.0966 | 0.176 |
| TTCGCTT | -0.208 | -0.0384 | -0.194 | -1.77 | -0.0597 | -0.8 | -0.411 | 0.0117 | -0.108 |
| AGAAAGG | 0.114 | 0.137 | 0.177 | 0.733 | 0.0548 | 0.0203 | 0.235 | 0.11 | 0.2 |
| GCGAGGC | -0.0609 | -0.0953 | 0.00598 | 0.479 | -0.106 | 0.306 | 0.0105 | 0.0248 | -0.0474 |
| CTAGGGA | 0.0582 | 0.123 | 0.422 | 0.773 | 0.0728 | 0.643 | 0.0843 | -0.0228 | 0.0743 |
| GCACCGG | -0.078 | -0.0365 | 0.405 | 1.23 | -0.0814 | 1.53 | -0.0247 | -0.0245 | -0.0546 |
| TCCCGAT | 0.0657 | -0.0129 | 0.162 | 0.245 | 0.00844 | 0.533 | 0.0059 | -0.0572 | 0.0503 |
| ATCTTAG | -0.0442 | 0.0461 | -0.718 | -0.316 | 0.0635 | -1.15 | 0.318 | 0.0653 | 0.0216 |
| GTGTAAA | 0.0111 | 0.127 | 0.328 | 1 | 0.118 | 1.88 | 0.158 | 0.106 | 0.125 |
| GACCTGG | 0.162 | 0.114 | 0.1 | 0.315 | 0.0395 | -0.146 | 0.145 | 0.166 | 0.0603 |
| AGGCCTT | -0.032 | 0.0863 | 0.792 | 1.34 | -0.0438 | 1.97 | -0.0124 | 0.0299 | 0.123 |
| AACTCTG | 0.0441 | 0.0632 | 0.107 | 0.549 | 0.0534 | 0.726 | 0.0708 | -0.016 | -0.00326 |
| CATCGCT | 0.119 | 0.0442 | -0.354 | -1.58 | 0.0683 | -1.01 | -0.146 | 0.0819 | 0.0123 |
| CGATGAG | 0.0614 | 0.181 | -0.498 | -0.248 | 0.12 | -0.859 | 0.26 | 0.0989 | -0.0249 |
| ATAGAGG | 0.0883 | 0.0811 | 0.213 | 0.737 | 0.177 | 0.0446 | 0.183 | 0.00909 | 0.0576 |
| CATGCTG | 0.00405 | -0.0896 | 0.201 | 1.19 | 0.0571 | 1.15 | 0.158 | -0.158 | -0.0111 |
| CGCCGTT | -0.114 | -0.139 | -0.108 | -0.906 | 0.0155 | -0.35 | -0.153 | 0.0299 | -0.0721 |
